{"source": "PubChem BioAssay AID1345082", "about": "(National Center for Advancing Translational Sciences (NCATS), 2018)", "note": "The campaign covered roughly 94,000 compounds. About 4,000 (4.3%) were called active. The shares of active, inactive and inconclusive entries below differ from those in the screen. Calls follow the shape of the dose curve; as a rule, active = well fitted inhibition curve with a large enough effect; inconclusive = small, poorly fitted or top-dose-only effect; inactive = no such curve, though single readings can be large or run the other way. Potencies of inconclusive entries are doubtful fits and often do not repeat. Potency is read from the fitted curve at half-maximal effect; tags tell the direction and shape of the fitted curve."}
{"experiment": "Cytotoxic Profiling in NIH 3T3 Cell Line of Diverse Libraries Using Quantitative High-Throughput Screening; also: nearly all actives have a fitted effect of over 55% in size", "details": "NIH 3T3 viability, CellTiter-Glo ATP luminescence, 48-72 h; series mostly up to 96.7 µM", "summary_of_the_method": "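NIH 3T3 cells at 400 cells/well received 23 nL of compound by pintool and were incubated 48 or 72 h at 37 °C. Viability was read as ATP-coupled CellTiter-Glo luminescence.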"}
{"smiles": "COc1ccc(NC(=O)N2C[C@@H](F)C[C@H]2C(=O)N2CCc3ccccc3C2)cc1", "Potency": "inactive"}
{"smiles": "O=C(c1ccc(Cl)nc1)N1CCC2(CC1)CCN(Cc1cccs1)c1ccccc1O2", "Potency": "inconclusive: 25.1 µM [inhibitor, full curve]"}
{"smiles": "Cc1nc(CCNS(=O)(=O)c2cccs2)no1", "Potency": "inactive"}
{"smiles": "c1ccc(-c2noc(-c3cncnc3NC3CCCCC3)n2)cc1", "Potency": "inactive"}
{"smiles": "O=C(NCCn1cccc1-c1nc(-c2ccc3c(c2)OCO3)no1)C1(c2ccccc2)CC1", "Potency": "inconclusive: 44.7 µM [inhibitor, partial curve, poor fit]"}
{"smiles": "O=C(C1C2C(=O)N(C3CCCCCC3)C[C@@]23C=C[C@@H]1O3)N1C[C@@H]2[C@H](C1)[C@H]1CC[C@@H]2O1", "note": "(stereo partly drawn)", "Potency": "inconclusive: 100 µM [inhibitor, single point]"}
{"smiles": "O=C(Nc1cccc(C(F)(F)F)c1)N[C@H]1[C@H](O)[C@@H](N2CCC(Cc3ccccc3)CC2)[C@@H]2OC[C@H]1O2", "Potency": "active: 35.5 µM"}
{"smiles": "c1ccc(N2CCC(Cn3ccnc3-c3cc4n(n3)CCCNC4)C2)cc1", "note": "(stereo not drawn)", "Potency": "inconclusive: 79.4 µM [inhibitor, partial curve, poor fit]"}
{"smiles": "CCC1Oc2ccc(NC(=O)C(C)C)cc2CN(Cc2ccccc2F)C1=O", "note": "(stereo not drawn)", "Potency": "inconclusive: 44.7 µM [inhibitor, partial curve, poor fit]"}
{"smiles": "COCc1ccc2c(c1)c(OC(C)(C)C(=O)NCC(F)(F)F)nn2Cc1cccnc1", "Potency": "inconclusive: 100 µM [inhibitor, single point]"}
{"smiles": "NCCn1cc(C(=O)NCc2noc(Cc3ccccc3)n2)nn1", "Potency": "inconclusive: 44.7 µM [inhibitor, partial curve, poor fit]"}
{"smiles": "O=C(NC1CCN(c2cc(-c3ccc(Cl)cc3)[nH]n2)C1)c1c[nH]c2ccccc12", "note": "(stereo not drawn)", "Potency": "active: 39.8 µM"}
{"smiles": "Cc1ccc(CN2CCC3(CC2)COc2ccccc2C(=O)N3)cc1", "Potency": "inconclusive: 44.7 µM [inhibitor, partial curve, poor fit]"}
{"smiles": "Cc1noc(C)c1[S+](=O)([O-])NC1CCN(C(=O)c2ccc(-c3cccs3)cc2)CC1", "Potency": "inconclusive: 12.6 µM [inhibitor, full curve, poor fit]"}
{"smiles": "O=C(NC1CCCCCC1)c1nc2sccn2c1-c1ccc(C(F)(F)F)cc1", "Potency": "active: 25.1 µM"}
{"smiles": "COc1ccc(Nc2ccc3c(n2)CN(Cc2ccccc2F)C(=O)CO3)cc1", "Potency": "inconclusive: 56.2 µM [inhibitor, partial curve, poor fit]"}
{"smiles": "O=C(c1ccc2c(c1)OCO2)N1CCN(c2cc(-c3cccs3)[nH]n2)CC1", "Potency": "inconclusive: 44.7 µM [inhibitor, partial curve, poor fit]"}
{"smiles": "CC(C)n1cc2cc(C(=O)NCc3ccccn3)sc2c1", "Potency": "inactive"}
{"smiles": "C=CCc1cc(-c2c(-c3ccccc3)ncn2CCCO)cc(OC)c1O", "Potency": "inconclusive: 56.2 µM [inhibitor, partial curve, poor fit]"}
{"smiles": "CCN1CCN(C(=O)C2N(c3ccc(OC)cc3)C(=O)C23CCCCC3)CC1", "note": "(stereo not drawn)", "Potency": "inactive"}
{"smiles": "O=C1[C@H]2CN(Cc3cccc(F)c3)C[C@H]2C(=O)N1Cc1ccc2c(c1)OCO2", "Potency": "inconclusive: 39.8 µM [inhibitor, partial curve, poor fit]"}
{"smiles": "COc1ccc(-c2cc(N3CCC(NC(=O)c4ccc(C)c(C)c4)C3)n[nH]2)cc1", "note": "(stereo not drawn)", "Potency": "inconclusive: 44.7 µM [inhibitor, partial curve, poor fit]"}
{"smiles": "O=C(Nc1ccccc1)N1CCCN(c2ccc3nnc(-c4ccccc4)n3n2)CC1", "Potency": "inconclusive: 70.8 µM [inhibitor, single point]"}
{"smiles": "O=C(Cc1cccc(Cl)c1)N1CCCC(C(=O)N2CCC(c3nc4ncccc4[nH]3)CC2)C1", "note": "(stereo not drawn)", "Potency": "inactive"}
{"smiles": "COc1cc(NC(=O)c2cnc(-c3ccc(F)cc3)nc2-c2ccncc2)cc(OC)c1", "Potency": "inconclusive: 44.7 µM [inhibitor, partial curve, poor fit]"}
{"smiles": "OCC1(CN2CCCC2)CCN(Cc2ccc(Cl)c(F)c2)CC1", "Potency": "inconclusive: 89.1 µM [inhibitor, single point]"}
{"smiles": "c1ccc(COc2ccccc2CN2CCC3(CCNCC3)C2)cc1", "Potency": "active: 22.4 µM"}
{"smiles": "Clc1ccc(CCNc2ncncn2)c(Cl)c1", "Potency": "inconclusive: 44.7 µM [inhibitor, partial curve]"}
{"smiles": "O=C(c1cc2cc(Cl)ccc2[nH]1)N1C[C@@H](CO)[C@H](c2ccccn2)C1", "Potency": "inconclusive: 50.1 µM [inhibitor, partial curve, poor fit]"}
{"smiles": "O=C(NCCCN1CCCCC1)c1cccnc1N1CC2CC(C1)[C@H]1CCCC(=O)N1C2", "note": "(stereo partly drawn)", "Potency": "inactive"}
{"smiles": "COc1ccc(OC)c(NC(=O)CC2CCCCN(C)C2=O)c1", "note": "(stereo not drawn)", "Potency": "inactive"}
{"smiles": "Cc1ccc2c(c1)N(CCCC(=O)N1CCC(C)(c3noc(-c4ccccc4)n3)CC1)C(=O)CO2", "Potency": "inconclusive: 44.7 µM [inhibitor, partial curve, poor fit]"}
{"smiles": "Cc1nc(-c2nc3c([nH]2)CCCNC3=O)cc(=O)[nH]1", "Potency": "inactive"}
{"smiles": "O=C1NC(=NC2CCCCC2)C2(CCCN(Cc3ccc(F)cc3)C2)N1c1cc(F)cc(F)c1", "note": "(stereo not drawn)", "Potency": "inconclusive: 44.7 µM [inhibitor, partial curve, poor fit]"}
{"smiles": "COc1ccc2nc3n(c2c1)[C@@H](CNC(C)C)COC3", "Potency": "active: 100 µM"}
{"smiles": "CCCNC(=O)N(C1CCOCC1)C1CCN(S(=O)(=O)c2cc(F)ccc2C)CC1", "Potency": "inconclusive: 35.5 µM [inhibitor, partial curve]"}
{"smiles": "COc1ccccc1-n1c(=O)c(C(=O)N2CCCC2)nc2cccnc21", "Potency": "inactive"}
{"smiles": "Cc1nn(C)c(C)c1CCC(=O)N1CCC(Cc2noc(-c3ccc(F)cc3)n2)C1", "note": "(stereo not drawn)", "Potency": "inconclusive: 25.1 µM [inhibitor, partial curve]"}
{"smiles": "COc1ccc(CCC(=O)N2CCC(c3n[nH]c(=O)n3Cc3ccc(F)cc3)CC2)cc1", "Potency": "inconclusive: 50.1 µM [inhibitor, partial curve, poor fit]"}
{"smiles": "O=C(CCc1conc1-c1ccccc1F)NCc1cccc(Br)c1", "Potency": "inconclusive: 50.1 µM [inhibitor, partial curve, poor fit]"}
{"smiles": "c1ccc(OCc2noc(-c3ccc(NCC4CCCCO4)nc3)n2)cc1", "note": "(stereo not drawn)", "Potency": "inconclusive: 39.8 µM [inhibitor, partial curve, poor fit]"}
{"smiles": "O=C(NC1CC1)c1ccc(Cn2ccn3nc4c(c3c2=O)CCCC4)cc1", "Potency": "inconclusive: 56.2 µM [inhibitor, partial curve, poor fit]"}
{"smiles": "COc1cccc(NC(=O)[C@@H]2OCC(=O)N(C3CC3)[C@H]2c2ccccc2)c1", "Potency": "inactive"}
{"smiles": "O=C(NCc1cccc(C(F)(F)F)c1)c1ccc2nnc(-c3cccc(C(F)(F)F)c3)n2c1", "Potency": "inconclusive: 12.6 µM [inhibitor, full curve]"}
{"smiles": "O=C1NCCCCCCN(C(=O)Nc2ccc3c(c2)OCCO3)[C@H]2CCC[C@@H]12", "Potency": "inactive"}
{"smiles": "CN(Cc1ccccc1)C(=O)C[C@@H]1c2nc(NC(=O)C(C)(C)C)sc2C[C@@H]2[C@](C)(CO)[C@H](O)CC[C@]21C", "Potency": "inconclusive: 50.1 µM [inhibitor, partial curve, poor fit]"}
{"smiles": "O=C(c1cc(-c2ccc(Cl)cc2Cl)c2cccn2n1)N1CCN(c2ncccn2)CC1", "Potency": "inconclusive: 70.8 µM [inhibitor, single point]"}
{"smiles": "Cn1nc(C2CC2)cc1NC(=O)c1cccc(Cl)c1", "Potency": "inconclusive: 89.1 µM [inhibitor, partial curve, poor fit]"}
{"smiles": "O=C1NC2(CCN(Cc3ccccc3C(F)(F)F)C2)COc2ccccc21", "note": "(stereo not drawn)", "Potency": "inconclusive: 50.1 µM [inhibitor, partial curve, poor fit]"}
{"smiles": "Cc1cc(C)cc(-c2ccc(CN3CCCC(N[S+](=O)([O-])c4cccs4)C3)cc2)c1", "note": "(stereo not drawn)", "Potency": "active: 31.6 µM"}
{"smiles": "Cc1ncc2c(c1CNC(=O)c1ccccc1OC(F)F)CCNC2", "Potency": "inactive"}
{"smiles": "CC1(Cc2ccc3c(c2)OCO3)CCCN(C(=O)c2cncc(Cl)c2)C1", "note": "(stereo not drawn)", "Potency": "inconclusive: 44.7 µM [inhibitor, partial curve]"}
{"smiles": "Cc1ccc(Nc2ccnc(N3CCC(C(=O)N(C)C)CC3)n2)cc1", "Potency": "inconclusive: 39.8 µM [inhibitor, partial curve, poor fit]"}
{"smiles": "O=C(NCCc1ccccc1)c1ccc2nc(-c3ccccn3)oc2c1", "Potency": "inconclusive: 89.1 µM [inhibitor, partial curve]"}
{"smiles": "O=C(c1ccccc1)N1CCC2(C1)C(=NC1CCCCC1)NC(=O)N2c1cccnc1", "note": "(stereo not drawn)", "Potency": "inactive"}
{"smiles": "CCOCCn1cc(C2CCN(S(=O)(=O)c3cccc(Cl)c3C)CC2)c2ccccc21", "Potency": "inactive"}
{"smiles": "CCOC(=O)[C@@H]1CN(C(=O)c2ccc(C)cc2)[C@H]2c3cccc(F)c3O[C@@H]12", "Potency": "inconclusive: 70.8 µM [inhibitor, partial curve, poor fit]"}
{"smiles": "COc1ccc(OC)c(NC(=O)CC2CCCCN(Cc3ccccc3)C2=O)c1", "note": "(stereo not drawn)", "Potency": "inconclusive: 44.7 µM [inhibitor, partial curve, poor fit]"}
{"smiles": "COc1ccc(-c2ccc3ncc(Nc4ccccc4OC)n3n2)cn1", "Potency": "inconclusive: 50.1 µM [inhibitor, partial curve, poor fit]"}
{"smiles": "CCOc1ccc2c(n1)CCN(C(=O)Nc1cc(C)ccc1C)C2", "Potency": "inconclusive: 35.5 µM [inhibitor, partial curve, poor fit]"}
{"smiles": "CN1C(=O)CC[C@]2(C(=O)NCc3ccccc3Cl)CCCC[C@@H]12", "Potency": "inactive"}
{"smiles": "COc1ncccc1-c1nccn2c(C3CN(Cc4c[nH]c5ccccc45)C3)ncc12", "Potency": "inconclusive: 112 µM [inhibitor, single point]"}
{"smiles": "c1cncc(C2=NOC3(CCCN(Cc4cccc5ccccc45)C3)C2)c1", "note": "(stereo not drawn)", "Potency": "inconclusive: 44.7 µM [inhibitor, partial curve, poor fit]"}
